Test results from the supplement of paper PMC10126150.
Values marked as one replicate rest on one cluster of the flow cell; about a third of the high ones do not repeat.

System: ATP
Experiment: switch fluorescence ratio, 500 uM ATP over buffer (Cy3 cluster intensity, sum of 5 cycles each) (fold (ratio)); higher = stronger signal-on switching upon ATP binding; sequences stand for … in TCGTCGGCAGCGTCAGATGTGTATAAGAGACAGTTTTTTTTTTTTTTTTTTTTTTTTT…TC
Details: aptamer strand: ATP DNA aptamer (quencher-CACCTGGGGGAGTATTGCGGAGGAAGG + anchor), 100 nM annealed; ATP concentration: 500 uM; one replicate
In short: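 After annealing to 100 nM quencher-labelled ATP aptamer, Cy3-labelled switching-strand clusters on a modified Illumina MiSeq flow-cell were imaged in selection buffer. A second image followed after 15 min with 500 uM ATP at 22 °C, and five such buffer/ATP cycles were done, each separated by NaOH stripping and re-annealing. The fluorescence ratio, averaged per switch-domain sequence, is summed target-cycle over summed buffer-cycle Cy3 intensity per cluster, with clusters outside 100-1000 RFU excluded.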
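Further: ATP exposure 15 min at 22 °C before imaging.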

| Sequence | switch fluorescence ratio |
| --- | --- |
| ACCTCAAATT | 1.04 |
| AGCGACGGTG | 1 |
| GATTGACGTT | 1.01 |
| AAATTTTG | 1.02 |
| GCTGCTATGT | 1.06 |
| TCGAGGCCCC | 1.04 |
| TGTGTACTTT | 1.01 |
| AGCCTAAAC | 1.06 |
| ACACTGGTTT | 0.969 |
| TAATGCCGTA | 1.04 |
| TAGCGGCCGA | 1.03 |
| AGCCTAATCG | 0.991 |
| CTGAAAC | 1.03 |
| AAACCCGTAG | 1.05 |
| GTCGCTATGC | 2.1 |
| ATTACGACGG | 1.06 |
| TAATTGTAGT | 1.03 |
| CTAATCGGGA | 0.977 |
| AGTCAACTTT | 1.05 |
| GTAGCTAGTG | 0.987 |
| AGCAACGCAC | 1.4 |
| GCGTGGAAGG | 1.02 |
| GTCTTTGGAC | 0.991 |

| Sequence | switch fluorescence ratio |
| --- | --- |
| GGTGCGTAGA | 1.03 |
| GTCGTCGCCT | 1.17 |
| ACCCTGTTAT | 1.02 |
| TTGCCCCGT | 0.968 |
| GAACCGGGG | 1.05 |
| ATTACTGTTA | 1.05 |
| ACTGCATGCA | 1 |
| AATGCATGGA | 1.01 |
| GTTTTACGCT | 0.959 |
| GCTGTCGATA | 0.957 |
| GGTTATTAA | 0.976 |
| ACCTCGTAAC | 1.07 |
| GGTTTGATTC | 1.04 |
| GTTTATGTCA | 0.992 |
| TAATAGCTTT | 0.994 |
| AAGAGCTAAT | 0.977 |
| GTTTTGCTCG | 1 |
| TTAGGCGAGC | 1.05 |
| ATAAGCCTTT | 1 |
| TCCACTATAT | 1.15 |
| CGAGACAACG | 0.937 |
| GACCCTAAAG | 1.03 |
| GTAGTGTGCG | 1.01 |

| Sequence | switch fluorescence ratio |
| --- | --- |
| AGGGCTGGT | 0.973 |
| TGAGGCAGAT | 1.11 |
| ACAGGACACA | 1.11 |
| AGCTTGGGGC | 0.993 |
| AAGAGGTGAT | 1.03 |
| CGATGGTCAG | 1.01 |
| TTTTGCTAAT | 0.976 |
| TATGCAGCCT | 1.01 |
| ATGATCGAAA | 0.982 |
| TCGCCTTGCA | 0.974 |
| TAGCGAGGCC | 1.01 |
| GGATTAACAC | 1.05 |
| TTTAGCGTCC | 1.01 |
| ATGGCATGGC | 0.972 |
| TTCGGTGGCC | 1.01 |
| GATCTACCAG | 1 |
| TTTATCAGGA | 0.987 |
| TAGCTTTCCC | 1.13 |
| ACTTGGGGAA | 0.936 |
| CGAGAAAGGA | 0.98 |
| CTGGGGGACT | 0.962 |
| AGATCCTATA | 0.967 |
| TTAGACAAAT | 0.984 |

| Sequence | switch fluorescence ratio |
| --- | --- |
| TTTTCCTTCA | 1.33 |
| CAGTATAATT | 0.972 |
| GTGAATATTT | 1 |
| ACCACTGCTC | 1.14 |
| GCGATCTTGT | 0.964 |
| AGGTCCTGCT | 0.992 |
| CCGCTCCA | 1.8 |
| GCTCGCGCTT | 1.24 |
| GCATGGTATA | 0.975 |
| CGTGGTGTG | 0.964 |
| AGCGAGTACT | 1.2 |
| TGCCTCATTA | 1 |
| GGTCTTACTT | 1.04 |
| AGGGGATTTC | 0.965 |
| CGGAGCTGGG | 1.24 |
| CTGGTCTTGT | 1.03 |
| TATACTGTT | 0.975 |
| CGGCACTTGT | 1 |
| ATTTCCACGT | 1 |
| ATATCTAGAG | 0.951 |
| TAATAGTCGG | 0.994 |
| TCTCGCTATG | 1.11 |
| AGAAACTCGA | 1 |

| Sequence | switch fluorescence ratio |
| --- | --- |
| GCGAACAATT | 1.01 |
| AGGGGGAAC | 0.968 |
| ACATTCTGAT | 1 |
| TGCCAGTCAC | 1.01 |
| CTTACCTGAA | 1.09 |
| GGCGTTCGGG | 1 |
| GGAGATAAT | 1 |
| CGGCCGGA | 0.989 |
| GAGTTTGCAG | 0.982 |
| CCAATGGATC | 1.03 |
| TTAAGTATGC | 1.05 |
| TGGTGGATCG | 0.933 |
| GTACGTCGCG | 1.02 |
| CCGGCGTATT | 1.21 |
| GAAAAGTGCG | 0.999 |
| GTTAAA | 0.948 |
| ATGGCCTGT | 1.06 |
| TGACCGGAA | 1.1 |
| AGGGCAATTC | 3.29 |
| TGAGGCCAAC | 0.993 |
| GCGCGCATGA | 0.983 |
| ATGGTGTCCA | 1.02 |
| GGGCTACGGA | 0.944 |

| Sequence | switch fluorescence ratio |
| --- | --- |
| TCTGGTGTTG | 0.976 |
| TTATGCGCTC | 1.04 |
| CAGTACGTT | 1.02 |
| AGAGCCCA | 0.982 |
| TTGATCCGTC | 1.04 |
| ATAATTATCT | 1.04 |
| ATTCGATCTT | 1.01 |
| CCATAGGGTT | 0.994 |
| ACGTATCCCA | 1.15 |
| TACATGAGAG | 0.986 |
| GCAATGGGGC | 1.31 |
| TTGGAGGA | 1.05 |
| AGCGGGATTT | 0.982 |
| TTCGAAGTTT | 0.997 |
| AGGGCGGTAG | 0.945 |
| CTTGACGGAC | 1.18 |
| AATAGCCGTT | 1.02 |
| TGACTGCGTT | 1.04 |
| GACAGATTAG | 1.01 |
| TACCGTTGGT | 0.972 |
| GAATTTAGAA | 1.02 |
| TTAACTGTAG | 1.07 |
| TTTTCACGTG | 1.01 |

| Sequence | switch fluorescence ratio |
| --- | --- |
| GACATTCCTC | 1.09 |
| CGAAGGGATT | 1.09 |
| TTACGCTTGT | 1.21 |
| CTTATGCATC | 1.1 |
| GATCATGTCT | 0.973 |
| GGATAAGGTA | 0.978 |
| AACAAGTACA | 1.29 |
| GGACTGCATT | 1.06 |
| TCTGGCATCA | 0.983 |
| TCTTTGGCAG | 3.92 |
| TATGATTTCG | 0.969 |
| TTGGCTGCTC | 0.965 |
| ATCCAGGCGG | 0.999 |
| GACATTCACG | 1.29 |
| ATAGAGTGAT | 0.986 |
| CTTATATCAA | 0.98 |
| ACGTCATACA | 1.24 |
| ACCATGTGTT | 1.05 |
| CAATAATGAG | 1.02 |
| CCACGTTATA | 1.36 |
